In paper PMC7367482, “An Erg11 lanosterol 14-α-demethylase-Arv1 complex is required for Candida albicans virulence” (PLoS ONE, 2020) one finds binding data, which are given here for 17 molecules.

The chains behind the UniProt entries cited, without tags or fusion partners. Where a name states a change or a piece, a line headed by the entry shows the natural chain unless it says otherwise.
UniProt P10613: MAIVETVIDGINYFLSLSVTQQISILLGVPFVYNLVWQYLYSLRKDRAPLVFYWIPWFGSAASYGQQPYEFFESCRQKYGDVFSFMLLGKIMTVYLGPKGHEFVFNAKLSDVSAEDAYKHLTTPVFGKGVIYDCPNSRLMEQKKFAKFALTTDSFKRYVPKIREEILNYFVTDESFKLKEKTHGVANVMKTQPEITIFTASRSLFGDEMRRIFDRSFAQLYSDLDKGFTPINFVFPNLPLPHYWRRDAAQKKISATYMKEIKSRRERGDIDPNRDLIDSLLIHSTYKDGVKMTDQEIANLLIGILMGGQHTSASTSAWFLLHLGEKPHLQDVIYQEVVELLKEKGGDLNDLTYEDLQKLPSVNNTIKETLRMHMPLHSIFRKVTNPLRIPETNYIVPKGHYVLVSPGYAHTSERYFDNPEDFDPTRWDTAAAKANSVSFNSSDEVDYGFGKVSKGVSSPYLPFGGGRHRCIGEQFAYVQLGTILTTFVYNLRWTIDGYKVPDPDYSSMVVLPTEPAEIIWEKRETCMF
UniProt P10614: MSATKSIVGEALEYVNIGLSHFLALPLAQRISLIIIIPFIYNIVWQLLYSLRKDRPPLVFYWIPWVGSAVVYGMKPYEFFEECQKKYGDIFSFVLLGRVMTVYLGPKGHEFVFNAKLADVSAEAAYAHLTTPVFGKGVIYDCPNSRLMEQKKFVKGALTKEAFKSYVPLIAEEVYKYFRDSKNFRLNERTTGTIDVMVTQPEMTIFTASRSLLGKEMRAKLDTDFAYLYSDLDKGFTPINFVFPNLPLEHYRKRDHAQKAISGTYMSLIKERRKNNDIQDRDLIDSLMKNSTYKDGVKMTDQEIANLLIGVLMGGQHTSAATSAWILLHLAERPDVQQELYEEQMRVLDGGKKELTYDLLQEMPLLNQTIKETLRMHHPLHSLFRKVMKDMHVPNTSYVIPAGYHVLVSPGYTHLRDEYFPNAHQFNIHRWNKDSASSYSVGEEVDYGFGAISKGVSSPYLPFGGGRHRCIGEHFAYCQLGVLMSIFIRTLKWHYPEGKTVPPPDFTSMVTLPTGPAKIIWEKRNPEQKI
UniProt Q06541: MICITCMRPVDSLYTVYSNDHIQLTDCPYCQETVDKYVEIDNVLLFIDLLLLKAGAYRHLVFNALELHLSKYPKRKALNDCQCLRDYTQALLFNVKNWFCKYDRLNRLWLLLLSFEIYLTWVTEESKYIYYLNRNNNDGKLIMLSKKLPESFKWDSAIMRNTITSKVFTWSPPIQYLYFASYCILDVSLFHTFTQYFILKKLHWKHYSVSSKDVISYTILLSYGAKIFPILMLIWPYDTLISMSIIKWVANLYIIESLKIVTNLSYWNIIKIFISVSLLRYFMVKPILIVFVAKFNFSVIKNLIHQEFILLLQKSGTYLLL

Read-outs that look alike come from different tables or passages of the source. No constants are given. Whether binding was seen depends on the method and setting. For some assays here: In cells and extracts the contact can be indirect. Some binding calls cover weakened binding; strength is not graded here. For some assays here: Tags and fused reporters may be left off the sequences shown.

Assay [1] addresses CaErg11 (split-ubiquitin two-hybrid fusion) (C. albicans) (UniProt P10613). The assay can be described thus: two-hybrid; split-ubiquitin two-hybrid in S. cerevisiae L40; Cub-PLV and NubG fusions; growth on Trp- Leu- His- plates after 48 hr and >3-fold β-galactosidase activity over the negative control.
Assay [2] has as its target CaErg11-MYC (C. albicans) (UniProt P10613). The assay can be described thus: co-IP; whole cell lysates of Scarv1 cells co-expressing Arv1-HA and Erg11-MYC; 1 mg protein, anti-HA (16B12) or anti-MYC (9E10) 4 hr at 4°C, Protein A agarose; washes with 10 mM HEPES pH 7.5, 200 mM NaCl, 5 mM EDTA, 0.1% Nonidet P-40; western.
Assay [3] has as its target ScErg11-MYC (S. cerevisiae) (UniProt P10614). The description is as above.
In assay [4] the target is ScErg11 (split-ubiquitin two-hybrid fusion) (S. cerevisiae) (UniProt P10614). The assay can be described thus: two-hybrid; split-ubiquitin two-hybrid in S. cerevisiae L40; Cub-PLV and NubG fusions; growth on Trp- Leu- His- plates after 48 hr and >3-fold β-galactosidase activity over the negative control.
Assay [5] concerns the target ScArv1-HA (S. cerevisiae) (UniProt Q06541). Nature of the assay: co-IP; whole cell lysates of Scarv1 cells co-expressing Arv1-HA and Erg11-MYC; 1 mg protein, anti-HA (16B12) or anti-MYC (9E10) 4 hr at 4°C, Protein A agarose; washes with 10 mM HEPES pH 7.5, 200 mM NaCl, 5 mM EDTA, 0.1% Nonidet P-40; western.
Assay [6] has as its target CaErg11-MYC (C. albicans) (UniProt P10613). The description is as above. The source holds these as a separate data set.

For “CaArv1^C3A (split-ubiquitin two-hybrid fusion) (from UniProt Q5ANH2 1-296)”, the binding entry in assay [1] is recorded as “binds”.

In the case of “CaArv1^C3A-HA (from UniProt Q5ANH2 1-296)”, in assay [2], the binding result was “binds”.

On to “CaArv1^C28A (split-ubiquitin two-hybrid fusion) (from UniProt Q5ANH2 1-296)”, for which, in assay [1], the binding entry was “no binding”.

For the molecule “CaArv1^C28A-HA (from UniProt Q5ANH2 1-296)”, in assay [2], the binding result was “no binding”.

Consider “CaArv1^Y38A (split-ubiquitin two-hybrid fusion) (from UniProt Q5ANH2 1-296)”, for which the binding entry in assay [1] was “binds”.

For the molecule “CaArv1^Y38A-HA (from UniProt Q5ANH2 1-296)”, the binding entry in assay [2] is recorded as “binds”.

As for ScArv1-HA (from UniProt Q06541 1-321), the binding entry in assay [3] is “binds”.

As to “ScArv1^C3A (split-ubiquitin two-hybrid fusion) (from UniProt Q06541 1-321)”, the binding entry in assay [4] is “binds”.

“ScArv1^C3A-HA (from UniProt Q06541 1-321)”: in assay [3], the binding result was “binds”.

Regarding “ScArv1^C27A (split-ubiquitin two-hybrid fusion) (from UniProt Q06541 1-321)”, in assay [4], the binding entry is “no binding”.

As to “ScArv1^C27A-HA (from UniProt Q06541 1-321)”, the binding result in assay [3] is listed as “no binding”.

For the molecule “ScArv1^Y37A (split-ubiquitin two-hybrid fusion) (from UniProt Q06541 1-321)”, the binding result in assay [4] is “binds”.

For the molecule “ScArv1^Y37A-HA (from UniProt Q06541 1-321)”, the binding result in assay [3] was “binds”.

In the case of “ScErg11-MYC (from UniProt P10614 1-530) (enzyme)”, the binding result in assay [5] was “binds”.

With “full-length ScArv1 (split-ubiquitin two-hybrid fusion) (from UniProt Q06541 1-321)”, the binding entry in assay [4] is recorded as “binds”.

B1: CaArv1-HA (protein, UniProt Q5ANH2 1-296)
chain: MICIECGYSNIDCLYSKYKSDYIKLSVCPECNKIADKYIEYDSVILFLDILLLKRQAYKHLAYNLTEMEMEIGSSTNFHINDNTNFKFFHTYRKLMKLIFMILSFEVYLTWANEEKLLIHSQLINLIFNQSVVYQYLFFIIKSSLENLILNLSLQLILRLGYKWGQGPQKINGNIRDKELFGYKTSVLLVTTMVSGSIRLFPILMFIWPYDNISITKPLINLIAFINIVEALRVVTSLGYVELILSLAFSIVIRNIVSKSLLVLIVRLFLDFNFTEVYYNEMYQLYSQIQTYIRWI
On to B1, for which the binding entry in assay [6] is listed as “binds”.

B2: full-length CaArv1 (split-ubiquitin two-hybrid fusion) (protein, UniProt Q5ANH2 1-296)
chain: MICIECGYSNIDCLYSKYKSDYIKLSVCPECNKIADKYIEYDSVILFLDILLLKRQAYKHLAYNLTEMEMEIGSSTNFHINDNTNFKFFHTYRKLMKLIFMILSFEVYLTWANEEKLLIHSQLINLIFNQSVVYQYLFFIIKSSLENLILNLSLQLILRLGYKWGQGPQKINGNIRDKELFGYKTSVLLVTTMVSGSIRLFPILMFIWPYDNISITKPLINLIAFINIVEALRVVTSLGYVELILSLAFSIVIRNIVSKSLLVLIVRLFLDFNFTEVYYNEMYQLYSQIQTYIRWI
Take B2: the binding entry in assay [1] is listed as “binds”.
